{"source": "the supplement of paper PMC9446081", "note": "Among all 39,000 compounds or so, about 220 (0.56%) showed activity. The list shows a part of the results.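 Also: static incubation at 37 °C against the wild-type strain, values averaged over two biological replicates.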", "data": [{"test_system": "Escherichia coli K-12 BW25113", "experiment": "relative growth (OD600 normalised to plate interquartile mean) (fraction); higher = less growth inhibition, active = 0.2 or less", "details": "50 µM; LB; incubation time: overnight (16-24 h)", "values": [{"smiles": "COc1ccc(CN(C)C[C@H]2OCCCC[C@H](C)Oc3ccc(NC(=O)NC(C)C)cc3C(=O)N([C@@H](C)CO)C[C@@H]2C)cc1", "relative growth": "inactive: 0.928"}, {"smiles": "CO[C@@H]1CN(C)C(=O)c2ccc(NC(=O)C3CC3)cc2OC[C@@H](C)N(C(=O)Cc2ccccn2)C[C@@H]1C", "relative growth": "inactive: 0.981"}, {"smiles": "C[C@@H]1CCCCO[C@H](CN(C)Cc2ccc(C(=O)O)cc2)[C@@H](C)CN([C@H](C)CO)C(=O)c2cc(NS(=O)(=O)c3cccs3)ccc2O1", "relative growth": "inactive: 1.02"}, {"smiles": "O=C(C[C@H]1C=C[C@@H](NC(=O)CN2CCOCC2)[C@@H](CO)O1)NCCc1ccncc1", "relative growth": "inactive: 1"}, {"smiles": "C[C@H](CO)N1C[C@H](C)[C@H](CN(C)Cc2ccc(C(=O)Nc3ccccc3N)cc2)OCc2cnnn2CCCC1=O", "relative growth": "inactive: 0.997"}, {"smiles": "Cc1noc(C)c1NC(=O)N(C)C[C@H]1OCCCC[C@@H](C)Oc2ccc(NC(=O)Nc3ccccc3)cc2C(=O)N([C@@H](C)CO)C[C@H]1C", "relative growth": "inactive: 0.989"}, {"smiles": "CC=Cc1ccc2n(c1=O)C[C@@H]1[C@@H](CO)[C@H](C(=O)NCCc3cn(C)cn3)[C@H]2N1C(=O)CC", "relative growth": "inactive: 1.01"}, {"smiles": "COc1ccc(S(=O)(=O)Nc2ccc3c(c2)C(=O)N([C@@H](C)CO)C[C@H](C)[C@@H](CN(C)C(=O)Nc2cccc4ccccc24)OCCCC[C@H](C)O3)cc1", "relative growth": "inactive: 1.02"}, {"smiles": "Cc1noc(C)c1NC(=O)Nc1ccc2c(c1)C(=O)N([C@@H](C)CO)C[C@H](C)[C@@H](CN(C)S(=O)(=O)c1ccc(F)cc1)OCCCC[C@H](C)O2", "relative growth": "inactive: 1.02"}, {"smiles": "C[C@@H]1CN([C@@H](C)CO)C(=O)CCCn2cc(nn2)CO[C@@H]1CN(C)C(=O)Nc1ccc(C(F)(F)F)cc1", "relative growth": "inactive: 0.982"}, {"smiles": "NCc1ccccc1-c1ccsc1", "relative growth": "inactive: 1.03"}, {"smiles": "COc1ccc(S(=O)(=O)N(C)C[C@H]2Oc3c(NS(C)(=O)=O)cccc3C(=O)N([C@H](C)CO)C[C@H]2C)cc1", "relative growth": "inactive: 0.989"}, {"smiles": "COc1ccc(S(=O)(=O)N(C)C[C@H]2Oc3ccc(NC(=O)CCN4CCOCC4)cc3CC(=O)N([C@@H](C)CO)C[C@H]2C)cc1", "relative growth": "inactive: 1.02"}, {"smiles": "O=C1O[C@@H](c2ccccc2)[C@@H](c2ccccc2)N2[C@@H](c3ccc(OCCO)cc3)[C@]3(C(=O)Nc4ccccc43)[C@@H](C(=O)NC[C@H](O)c3ccccc3)[C@H]12", "relative growth": "inactive: 1.05"}, {"smiles": "CCC1(C(=O)O)CCNCC1", "relative growth": "inactive: 0.963"}, {"smiles": "COc1ccc(CN(C)C[C@@H]2OCCCC[C@H](C)Oc3ccc(NS(=O)(=O)c4ccc(C)cc4)cc3C(=O)N([C@H](C)CO)C[C@H]2C)cc1", "relative growth": "inactive: 0.966"}, {"smiles": "Cc1ccc(S(=O)(=O)N(C)C[C@H]2OCCCC[C@H](C)Oc3ccc(NC(=O)Nc4ccc(F)cc4)cc3C(=O)N([C@@H](C)CO)C[C@@H]2C)cc1", "relative growth": "inactive: 1.04"}, {"smiles": "COc1ccc(NC(=O)N(C)C[C@@H]2Oc3ncc(C#C[C@H](C)O)cc3C(=O)N([C@@H](C)CO)C[C@@H]2C)cc1", "relative growth": "inactive: 1.02"}, {"smiles": "Cc1noc(C)c1NC(=O)Nc1cccc2c1O[C@@H](CN(C)S(C)(=O)=O)[C@H](C)CN([C@@H](C)CO)C2=O", "relative growth": "inactive: 0.971"}, {"smiles": "C[C@@H]1CN([C@H](C)CO)C(=O)c2cc(NS(=O)(=O)c3cn(C)cn3)ccc2O[C@@H]1CN(C)Cc1ccc(C(=O)Nc2ccccc2N)cc1", "relative growth": "inactive: 0.995"}, {"smiles": "O=C(CN1CCOCC1)NCC[C@@H]1CC[C@@H](NS(=O)(=O)c2ccc(Cl)cc2)[C@@H](CO)O1", "relative growth": "inactive: 0.986"}, {"smiles": "CC(C)C#Cc1ccc2c(c1)O[C@@H](CN(C)C(=O)c1cnccn1)[C@@H](C)CN([C@H](C)CO)S2(=O)=O", "relative growth": "inactive: 1.02"}, {"smiles": "CO[C@H]1C[C@@H]2CC[C@@H](C)[C@@](O)(O2)C(=O)C(=O)N2CCCC[C@H]2C(=O)O[C@H]([C@H](C)C[C@@H]2CC[C@@H](OC(=O)C(C)(CO)CO)[C@H](OC)C2)CC(=O)[C@H](C)/C=C(\\C)[C@@H](O)[C@@H](OC)C(=O)[C@H](C)C[C@H](C)/C=C/C=C/C=C/1C", "relative growth": "inactive: 0.936"}, {"smiles": "O=C(C[C@@H]1CC=CC[C@H](NC(=O)OCC2c3ccccc3-c3ccccc32)C(=O)O[C@H](c2ccccc2)CNC1=O)N[C@@H](CO)Cc1ccccc1", "relative growth": "inactive: 1.02"}, {"smiles": "Cc1cc(C(=O)Nc2cccc3c2O[C@@H](CN(C)S(=O)(=O)c2cn(C)cn2)[C@@H](C)CN([C@H](C)CO)C3=O)n(C)n1", "relative growth": "inactive: 0.989"}, {"smiles": "COc1ccc(CN(C)C[C@H]2OCCCC[C@@H](C)Oc3ccc(NS(=O)(=O)c4c(C)noc4C)cc3C(=O)N([C@H](C)CO)C[C@H]2C)cc1", "relative growth": "inactive: 1"}, {"smiles": "C[C@@H]1CN([C@@H](C)CO)S(=O)(=O)c2ccc(C#Cc3ccc(F)cc3)cc2O[C@@H]1CN(C)S(=O)(=O)c1ccc(F)cc1", "relative growth": "inactive: 1.04"}, {"smiles": "O=C1c2ccccc2-c2c(-c3ccccc3)nc3ccccc3c21", "relative growth": "inactive: 1.03"}, {"smiles": "C[C@@H]1CN([C@@H](C)CO)C(=O)c2cccc(NC(=O)Nc3cccc4ccccc34)c2O[C@@H]1CN(C)Cc1ccc(C(=O)Nc2ccccc2N)cc1", "relative growth": "inactive: 0.97"}, {"smiles": "C[C@H](CO)N1C[C@H](C)[C@H](CN(C)Cc2ccccc2)OCCCC[C@H](C)Oc2ccc(NS(=O)(=O)c3cccs3)cc2C1=O", "relative growth": "inactive: 1.01"}, {"smiles": "C[C@H](CO)N1C[C@H](C)[C@H](CN(C)Cc2ccccc2C(F)(F)F)OCc2ccccc2-c2c(n(C)c3ccccc23)C1=O", "relative growth": "inactive: 1.02"}, {"smiles": "COc1cc(Cl)ccc1Oc1ccc(Cl)cc1Cl", "relative growth": "inactive: 1.01"}, {"smiles": "O=C(Nc1ccc(C(F)(F)F)cc1)Nc1ccc2c(c1)[C@H]1C[C@H](CC(=O)N3CCc4ccccc4C3)O[C@@H](CO)[C@H]1O2", "relative growth": "inactive: 1.05"}, {"smiles": "CN1CCN(C(=O)C[C@H]2CC[C@H]3[C@@H](COC[C@@H](O)CN3C(=O)C3CC3)O2)CC1", "relative growth": "inactive: 0.979"}, {"smiles": "CO[C@@H]1CN(C)C(=O)c2ccc(NC(=O)c3ccc(Oc4ccccc4)cc3)cc2OC[C@@H](C)N(C(C)=O)C[C@H]1C", "relative growth": "inactive: 0.984"}, {"smiles": "COc1ccc2c3c(n(c2c1)C)[C@H](CO)N(Cc1cc(cc(c1)OC)OC)C[C@]13CN(C1)S(=O)(=O)c1cn(cn1)C", "relative growth": "inactive: 0.987"}]}]}
